# Laboratory results from the supplement of paper PMC8728848.
# Some of the results follow.
# B1: AFL5 (Aspergillus fumigatus), Q4WB00 (protein)
# chain: MDNFMEMTKKLGHQPELLRLRALDATYDDALEGKLVVAPLDMSEPGKKILDSGTADGTWLRNVRSKQSVPHDYYGSDVEGELFPKDPDGITYFAHSFKDPWPQQYLGFFDLVHIRGSLAGSAPEGPAPVIQNLTTLLKPGGWVQLMEMNAFSPPPNGPAMTDFAKMASEMFTGIGVGDFANNNKSMLEDAGLKNVQEKRVIVNLGKKAKPELHDQSIHGVTGPIVPLTSVARTVKSSFTGEQLDALPARVKEELETEGGQVEMIIAFGQKA
# Experiments:
# Experiment in all cases: glycan array binding signal (z-score within array); higher = stronger binding
# Conditions in all cases: glycan notation: IUPAC condensed, linker removed
# [1] = target: Gal(b1-4)GlcNAc(b1-2)[Gal(b1-4)GlcNAc(b1-6)]Man(a1-6)[Gal(b1-4)GlcNAc(b1-2)Man(a1-3)]Man(b1-4)GlcNAc(b1-4)[Fuc(a1-6)]GlcNAc
# Method in brief: (§1)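 Arrays were curated from the Consortium for Functional Glycomics database, 3228 in total, and kept only where the protein sequence was available. Binding is expressed as a within-array Z-score. This score was averaged across arrays of the same protein sequence at different concentrations or buffers and across linkers, and negative values can be read as non-binding.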
# [2] = target: Gal(b1-4)GlcNAc(b1-2)[Gal(b1-4)GlcNAc(b1-6)]Man(a1-6)[GlcNAc(b1-4)][Gal(b1-4)GlcNAc(b1-2)Man(a1-3)]Man(b1-4)GlcNAc(b1-4)GlcNAc
# Method in brief: as §1
# [3] = target: Gal(b1-4)GlcNAc(b1-2)[Gal(b1-4)GlcNAc(b1-6)]Man(a1-6)[GlcNAc(b1-4)][Gal(b1-4)GlcNAc(b1-2)[Gal(b1-4)GlcNAc(b1-4)]Man(a1-3)]Man(b1-4)GlcNAc(b1-4)[Fuc(a1-6)]GlcNAc
# Method in brief: as §1
# [4] = target: Gal(b1-4)GlcNAc(b1-3)Gal(b1-3)GalNAc
# Method in brief: as §1
# [5] = target: Gal(b1-4)GlcNAc(b1-3)Gal(b1-3)GlcNAc
# Method in brief: as §1
# [6] = target: Gal(b1-4)GlcNAc(b1-3)Gal(b1-4)Glc
# Method in brief: as §1
# [7] = target: Gal(b1-4)GlcNAc(b1-3)Gal(b1-4)GlcNAc
# Method in brief: as §1
# [8] = target: Gal(b1-4)GlcNAc(b1-3)Gal(b1-4)GlcNAc(b1-2)Man(a1-3)[Gal(b1-4)GlcNAc(b1-3)Gal(b1-4)GlcNAc(b1-2)Man(a1-6)]Man(b1-4)GlcNAc(b1-4)GlcNAc
# Method in brief: as §1
# [9] = target: Gal(b1-4)GlcNAc(b1-3)Gal(b1-4)GlcNAc(b1-2)Man(a1-3)[Gal(b1-4)GlcNAc(b1-3)Gal(b1-4)GlcNAc(b1-2)Man(a1-6)]Man(b1-4)GlcNAc(b1-4)[Fuc(a1-6)]GlcNAc
# Method in brief: as §1
# [10] = target: Gal(b1-4)GlcNAc(b1-3)Gal(b1-4)GlcNAc(b1-2)[Gal(b1-4)GlcNAc(b1-3)Gal(b1-4)GlcNAc(b1-6)]Man(a1-6)[Gal(b1-4)GlcNAc(b1-3)Gal(b1-4)GlcNAc(b1-2)Man(a1-3)]Man(b1-4)GlcNAc(b1-4)GlcNAc
# Method in brief: as §1
# [11] = target: Gal(b1-4)GlcNAc(b1-3)Gal(b1-4)GlcNAc(b1-2)[Gal(b1-4)GlcNAc(b1-3)Gal(b1-4)GlcNAc(b1-6)]Man(a1-6)[Gal(b1-4)GlcNAc(b1-3)Gal(b1-4)GlcNAc(b1-2)Man(a1-3)]Man(b1-4)GlcNAc(b1-4)[Fuc(a1-6)]GlcNAc
# Method in brief: as §1
# [12] = target: Gal(b1-4)GlcNAc(b1-3)Gal(b1-4)GlcNAc(b1-3)Gal(b1-4)GlcNAc
# Method in brief: as §1
# [13] = target: Gal(b1-4)GlcNAc(b1-3)Gal(b1-4)GlcNAc(b1-3)Gal(b1-4)GlcNAc(b1-2)Man(a1-3)[Gal(b1-4)GlcNAc(b1-3)Gal(b1-4)GlcNAc(b1-3)Gal(b1-4)GlcNAc(b1-2)Man(a1-6)]Man(b1-4)GlcNAc(b1-4)GlcNAc
# Method in brief: as §1
# [14] = target: Gal(b1-4)GlcNAc(b1-3)Gal(b1-4)GlcNAc(b1-3)Gal(b1-4)GlcNAc(b1-2)Man(a1-3)[Gal(b1-4)GlcNAc(b1-3)Gal(b1-4)GlcNAc(b1-3)Gal(b1-4)GlcNAc(b1-2)Man(a1-6)]Man(b1-4)GlcNAc(b1-4)[Fuc(a1-6)]GlcNAc
# Method in brief: as §1
# [15] = target: Gal(b1-4)GlcNAc(b1-3)Gal(b1-4)GlcNAc(b1-3)Gal(b1-4)GlcNAc(b1-2)[Gal(b1-4)GlcNAc(b1-3)Gal(b1-4)GlcNAc(b1-3)Gal(b1-4)GlcNAc(b1-6)]Man(a1-6)[Gal(b1-4)GlcNAc(b1-3)Gal(b1-4)GlcNAc(b1-3)Gal(b1-4)GlcNAc(b1-2)Man(a1-3)]Man(b1-4)GlcNAc(b1-4)[Fuc(a1-6)]GlcNAc
# Method in brief: as §1
# [16] = target: Gal(b1-4)GlcNAc(b1-3)Gal(b1-4)GlcNAc(b1-3)Gal(b1-4)GlcNAc(b1-3)Gal(b1-4)GlcNAc(b1-2)Man(a1-3)[Gal(b1-4)GlcNAc(b1-3)Gal(b1-4)GlcNAc(b1-3)Gal(b1-4)GlcNAc(b1-3)Gal(b1-4)GlcNAc(b1-2)Man(a1-6)]Man(b1-4)GlcNAc(b1-4)GlcNAc
# Method in brief: as §1
# [17] = target: Gal(b1-4)GlcNAc(b1-3)Gal(b1-4)GlcNAc(b1-3)Gal(b1-4)GlcNAc(b1-3)Gal(b1-4)GlcNAc(b1-2)Man(a1-3)[Gal(b1-4)GlcNAc(b1-3)Gal(b1-4)GlcNAc(b1-3)Gal(b1-4)GlcNAc(b1-3)Gal(b1-4)GlcNAc(b1-2)Man(a1-6)]Man(b1-4)GlcNAc(b1-4)[Fuc(a1-6)]GlcNAc
# Method in brief: as §1
# [18] = target: Gal(b1-4)GlcNAc(b1-3)Gal(b1-4)GlcNAc(b1-3)Gal(b1-4)GlcNAc(b1-3)Gal(b1-4)GlcNAc(b1-2)[Gal(b1-4)GlcNAc(b1-3)Gal(b1-4)GlcNAc(b1-3)Gal(b1-4)GlcNAc(b1-3)Gal(b1-4)GlcNAc(b1-6)]Man(a1-6)[Gal(b1-4)GlcNAc(b1-3)Gal(b1-4)GlcNAc(b1-3)Gal(b1-4)GlcNAc(b1-3)Gal(b1-4)GlcNAc(b1-2)Man(a1-3)]Man(b1-4)GlcNAc(b1-4)[Fuc(a1-6)]GlcNAc
# Method in brief: as §1
# [19] = target: Gal(b1-4)GlcNAc(b1-3)Gal(b1-4)GlcNAc(b1-3)Gal(b1-4)GlcNAc(b1-3)Gal(b1-4)GlcNAc(b1-3)Gal(b1-4)GlcNAc(b1-2)Man(a1-3)[Gal(b1-4)GlcNAc(b1-3)Gal(b1-4)GlcNAc(b1-3)Gal(b1-4)GlcNAc(b1-3)Gal(b1-4)GlcNAc(b1-3)Gal(b1-4)GlcNAc(b1-2)Man(a1-6)]Man(b1-4)GlcNAc(b1-4)GlcNAc
# Method in brief: as §1
# [20] = target: Gal(b1-4)GlcNAc(b1-3)Gal(b1-4)GlcNAc(b1-3)Gal(b1-4)GlcNAc(b1-3)Gal(b1-4)GlcNAc(b1-3)Gal(b1-4)GlcNAc(b1-2)Man(a1-3)[Gal(b1-4)GlcNAc(b1-3)Gal(b1-4)GlcNAc(b1-3)Gal(b1-4)GlcNAc(b1-3)Gal(b1-4)GlcNAc(b1-3)Gal(b1-4)GlcNAc(b1-2)Man(a1-6)]Man(b1-4)GlcNAc(b1-4)[Fuc(a1-6)]GlcNAc
# Method in brief: as §1
# [21] = target: Gal(b1-4)GlcNAc(b1-3)Gal(b1-4)GlcNAc(b1-3)Gal(b1-4)GlcNAc(b1-3)Gal(b1-4)GlcNAc(b1-3)Gal(b1-4)GlcNAc(b1-2)[Gal(b1-4)GlcNAc(b1-3)Gal(b1-4)GlcNAc(b1-3)Gal(b1-4)GlcNAc(b1-3)Gal(b1-4)GlcNAc(b1-3)Gal(b1-4)GlcNAc(b1-6)]Man(a1-6)[Gal(b1-4)GlcNAc(b1-3)Gal(b1-4)GlcNAc(b1-3)Gal(b1-4)GlcNAc(b1-3)Gal(b1-4)GlcNAc(b1-3)Gal(b1-4)GlcNAc(b1-2)Man(a1-3)]Man(b1-4)GlcNAc(b1-4)[Fuc(a1-6)]GlcNAc
# Method in brief: as §1
# [22] = target: Gal(b1-4)GlcNAc(b1-3)Gal(b1-4)GlcNAc(b1-3)Gal(b1-4)GlcNAc(b1-3)Gal(b1-4)GlcNAc(b1-3)Gal(b1-4)GlcNAc(b1-3)Gal(b1-4)GlcNAc(b1-2)Man(a1-3)[Gal(b1-4)GlcNAc(b1-3)Gal(b1-4)GlcNAc(b1-3)Gal(b1-4)GlcNAc(b1-3)Gal(b1-4)GlcNAc(b1-3)Gal(b1-4)GlcNAc(b1-3)Gal(b1-4)GlcNAc(b1-2)Man(a1-6)]Man(b1-4)GlcNAc(b1-4)GlcNAc
# Method in brief: as §1
# [23] = target: Gal(b1-4)GlcNAc(b1-3)Gal(b1-4)GlcNAc(b1-3)GalNAc
# Method in brief: as §1
# [24] = target: Gal(b1-4)GlcNAc(b1-3)Gal(b1-4)GlcNAc(b1-3)[Gal(b1-4)GlcNAc(b1-3)Gal(b1-4)GlcNAc(b1-6)]GalNAc
# Method in brief: as §1
# [25] = target: Gal(b1-4)GlcNAc(b1-3)Gal(b1-4)GlcNAc(b1-6)[Gal(b1-3)]GalNAc
# Method in brief: as §1
# [26] = target: Gal(b1-4)GlcNAc(b1-3)Gal(b1-4)[Fuc(a1-3)]GlcNAc(b1-3)Gal(b1-4)[Fuc(a1-3)]GlcNAc
# Method in brief: as §1
# [27] = target: Gal(b1-4)GlcNAc(b1-3)GalNAc
# Method in brief: as §1
# [28] = target: Gal(b1-4)GlcNAc(b1-3)[Fuc(a1-3)GlcNAc(b1-6)]Gal(b1-4)Glc
# Method in brief: as §1
# [29] = target: Gal(b1-4)GlcNAc(b1-3)[Gal(b1-4)GlcNAc(b1-6)]Gal(b1-4)GlcNAc
# Method in brief: as §1
# [30] = target: Gal(b1-4)GlcNAc(b1-3)[GlcNAc(b1-6)]Gal(b1-4)GlcNAc
# Method in brief: as §1
# [31] = target: Gal(b1-4)GlcNAc(b1-6)Gal(b1-4)GlcNAc
# Method in brief: as §1
# [32] = target: Gal(b1-4)GlcNAc(b1-6)GalNAc
# Method in brief: as §1
# [33] = target: Gal(b1-4)GlcNAc(b1-6)[Gal(b1-3)]GalNAc
# Method in brief: as §1
# [34] = target: Gal(b1-4)GlcNAc(b1-6)[Gal(b1-4)GlcNAc(b1-3)]GalNAc
# Method in brief: as §1
# Gal(b1-4)GlcNAc6P = target: Gal(b1-4)GlcNAc6P
# Method in brief: as §1
# Gal(b1-6)Gal = target: Gal(b1-6)Gal
# Method in brief: as §1
# Gal3S(b1-3)GalNAc = target: Gal3S(b1-3)GalNAc
# Method in brief: as §1
# Gal3S(b1-3)GlcNAc = target: Gal3S(b1-3)GlcNAc
# Method in brief: as §1
binder,measurement,setting,value
B1,glycan array binding signal (z-score),[1],-0.149
same,glycan array binding signal (z-score),[2],-0.405
same,glycan array binding signal (z-score),[3],3.2
same,glycan array binding signal (z-score),[4],-0.006
same,glycan array binding signal (z-score),[5],-0.579
same,glycan array binding signal (z-score),[6],-0.248
same,glycan array binding signal (z-score),[7],-0.236
same,glycan array binding signal (z-score),[8],1.15
same,glycan array binding signal (z-score),[9],1.35
same,glycan array binding signal (z-score),[10],0.482
same,glycan array binding signal (z-score),[11],0.673
same,glycan array binding signal (z-score),[12],-0.697
same,glycan array binding signal (z-score),[13],0.801
same,glycan array binding signal (z-score),[14],0.701
same,glycan array binding signal (z-score),[15],0.485
same,glycan array binding signal (z-score),[16],0.075
same,glycan array binding signal (z-score),[17],1.69
same,glycan array binding signal (z-score),[18],0.478
same,glycan array binding signal (z-score),[19],0.224
same,glycan array binding signal (z-score),[20],1.46
same,glycan array binding signal (z-score),[21],1.6
same,glycan array binding signal (z-score),[22],0.768
same,glycan array binding signal (z-score),[23],0.35
same,glycan array binding signal (z-score),[24],0.197
same,glycan array binding signal (z-score),[25],0
same,glycan array binding signal (z-score),[26],-0.606
same,glycan array binding signal (z-score),[27],-0.561
same,glycan array binding signal (z-score),[28],0.323
same,glycan array binding signal (z-score),[29],-0.342
same,glycan array binding signal (z-score),[30],-0.725
same,glycan array binding signal (z-score),[31],-0.403
same,glycan array binding signal (z-score),[32],0.388
same,glycan array binding signal (z-score),[33],0.219
same,glycan array binding signal (z-score),[34],-0.27
same,glycan array binding signal (z-score),Gal(b1-4)GlcNAc6P,-0.243
same,glycan array binding signal (z-score),Gal(b1-6)Gal,-0.347
same,glycan array binding signal (z-score),Gal3S(b1-3)GalNAc,0.664
same,glycan array binding signal (z-score),Gal3S(b1-3)GlcNAc,-0.291
